# The campaign covered roughly 310,000 compounds. About 2,200 (0.71%) showed an effect of 50% or more. Effects have a minus sign here. The list shows a part of the results.
# Target: human ether-à-go-go-related gene (hERG) potassium channel (human, UniProt Q12809)
# Test: primary screen, population patch clamp on CHO cells stably expressing hERG
# Chain of human ether-à-go-go-related gene (hERG) potassium channel (Q12809 whole entry, looked up): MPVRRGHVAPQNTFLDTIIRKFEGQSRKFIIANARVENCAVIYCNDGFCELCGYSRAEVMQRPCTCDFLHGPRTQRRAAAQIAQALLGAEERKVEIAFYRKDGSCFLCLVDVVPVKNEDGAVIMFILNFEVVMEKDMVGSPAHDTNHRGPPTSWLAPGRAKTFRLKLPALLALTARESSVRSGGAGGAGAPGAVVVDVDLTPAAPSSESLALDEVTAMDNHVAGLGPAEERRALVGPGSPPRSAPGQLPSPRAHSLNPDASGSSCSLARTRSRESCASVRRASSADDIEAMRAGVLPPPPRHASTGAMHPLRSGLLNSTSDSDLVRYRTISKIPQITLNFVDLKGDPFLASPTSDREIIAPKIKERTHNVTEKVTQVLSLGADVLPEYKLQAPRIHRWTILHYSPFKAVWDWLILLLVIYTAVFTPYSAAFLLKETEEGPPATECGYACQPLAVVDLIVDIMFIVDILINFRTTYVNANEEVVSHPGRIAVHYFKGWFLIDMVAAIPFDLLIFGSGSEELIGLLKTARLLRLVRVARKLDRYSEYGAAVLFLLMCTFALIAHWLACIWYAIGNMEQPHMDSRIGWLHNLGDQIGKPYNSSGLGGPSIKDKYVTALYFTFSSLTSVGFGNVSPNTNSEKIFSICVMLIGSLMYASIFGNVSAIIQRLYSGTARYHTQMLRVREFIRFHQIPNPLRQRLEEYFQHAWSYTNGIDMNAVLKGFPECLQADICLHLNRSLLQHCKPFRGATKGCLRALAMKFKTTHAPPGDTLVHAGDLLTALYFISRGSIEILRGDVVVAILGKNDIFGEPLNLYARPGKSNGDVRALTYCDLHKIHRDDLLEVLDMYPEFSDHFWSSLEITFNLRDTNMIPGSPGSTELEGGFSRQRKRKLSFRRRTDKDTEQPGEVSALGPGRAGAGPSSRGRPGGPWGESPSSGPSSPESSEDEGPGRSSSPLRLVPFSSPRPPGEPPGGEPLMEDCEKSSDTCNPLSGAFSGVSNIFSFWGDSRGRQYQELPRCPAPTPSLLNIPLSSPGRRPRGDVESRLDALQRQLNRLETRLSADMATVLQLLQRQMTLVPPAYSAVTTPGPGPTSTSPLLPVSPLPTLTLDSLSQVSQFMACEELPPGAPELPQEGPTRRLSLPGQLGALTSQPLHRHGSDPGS
row,Structure (SMILES),"hERG current change (%, negative = inhibition) at 1uM [%]"
1,COc1ccc(C2CC(c3ccc(Br)cc3)=NN2C(=O)CCC(=O)O)cc1OC (stereo not shown),12.8
2,COc1ccc(CN2C(=O)C(CC(C)C)Nc3ncnc(N4CCOCC4)c32)cc1.O=C(O)C(F)(F)F (stereo not shown),13.6
3,COc1ccc(CCn2c(SCC(=O)Nc3cc(C)on3)nc3ccccc3c2=O)cc1OC,3.68
4,O=C(NCCCN1CCCC1=O)c1nnc(Cc2c(F)cccc2Cl)o1,6.04
5,CC1CCCCC1NC(=O)CN1C(=O)c2ccccc2S1(=O)=O (stereo not shown),11.9
6,CCOC(=O)C(=O)/C(=C\N(C)C)c1onc(-c2ccccc2Cl)c1C(=O)OC,6.39
7,CC(NC(=O)c1cc(Br)ccc1Br)c1ccccc1 (stereo not shown),9.65
8,Cc1ccc2c(c1)C(c1ccc([N+](=O)[O-])cc1)=NNC(c1ccc(Br)cc1)=N2,4.32
9,Cc1ccccc1C(=O)OC1OC(=O)C(Cl)=C1Nc1ccccc1 (stereo not shown),13.8
10,CN(C)C(=O)/C(C#N)=C\c1cc(Br)c(Sc2ccc(Cl)cc2)o1,3.03
11,CCN(CC)S(=O)(=O)c1ccc(NC(=O)c2cnc(C)cn2)cc1,13.4
12,Cc1nn(C)c(Cl)c1CN1CCCC(CCC(=O)NCc2ccccc2F)C1 (stereo not shown),8.42
13,CCOC(=O)c1[nH]c(C)c(C(=O)NCc2ccccn2)c1C,-1.38
14,Cc1ccc(C2CCN(C(=S)NC(C)C)C2)cc1 (stereo not shown),13.9
15,COc1ccc(OCCCC(=O)N(C)CC(=O)Nc2c(C)cccc2C)cc1,4.32
16,COC(=O)c1ccc(NC(=O)C2CCCN2S(=O)(=O)c2ccc(OC)cc2)cc1 (stereo not shown),-8.74
17,O=c1[nH][nH]c(-c2ccccc2)c1C=Nc1cccc(Cl)c1,12.1
18,COC(=O)c1ccc(CSc2nnc(NCc3ccccc3)s2)o1,2.86
19,O=C(Oc1ccc(=O)n(-c2ccccc2)n1)c1cccc(Cl)c1,8.91
20,CCC(C)[C@@H](C(=O)NCC1CCC(C(=O)O)CC1)n1nnc2ccccc2c1=O (stereo partly shown),-0.545
21,CCCn1nnc(NC(=O)/C=C/c2ccco2)n1,10.4
22,Cc1cccc(NCC(=O)N/N=C\c2cccn2C)c1,7.32
23,COC(=O)c1ccc(COc2ccc(F)cc2)o1,6.94
24,CCOC(=O)c1c(-c2ccc(OC)cc2)csc1NC(=O)C1CCCO1 (stereo not shown),13.4
25,O=C(NC1CCCC1)C(c1ccncc1)N(C(=O)c1csnn1)c1ccccc1 (stereo not shown),7.99

# Source: article PMC4336329 (PLoS ONE, 2015)
